This is an account of results in PubChem BioAssay AID360 (National Center for Advancing Translational Sciences (NCATS), 2006).

The whole screen tested about 48,000 compounds, of which about 550 (1.1%) were called active. Roughly 4% stayed inconclusive and do not appear here. Cut-off read from the data, not from the text of the source: active = potency below about 15 µM; inconclusive = mostly about 16 µM to 33 µM; inactive = weaker than that. This is one part of the list.
Potency is the fitted concentration of half-maximal effect.

Sequence of UniProt P04062 (P04062 whole entry, looked up): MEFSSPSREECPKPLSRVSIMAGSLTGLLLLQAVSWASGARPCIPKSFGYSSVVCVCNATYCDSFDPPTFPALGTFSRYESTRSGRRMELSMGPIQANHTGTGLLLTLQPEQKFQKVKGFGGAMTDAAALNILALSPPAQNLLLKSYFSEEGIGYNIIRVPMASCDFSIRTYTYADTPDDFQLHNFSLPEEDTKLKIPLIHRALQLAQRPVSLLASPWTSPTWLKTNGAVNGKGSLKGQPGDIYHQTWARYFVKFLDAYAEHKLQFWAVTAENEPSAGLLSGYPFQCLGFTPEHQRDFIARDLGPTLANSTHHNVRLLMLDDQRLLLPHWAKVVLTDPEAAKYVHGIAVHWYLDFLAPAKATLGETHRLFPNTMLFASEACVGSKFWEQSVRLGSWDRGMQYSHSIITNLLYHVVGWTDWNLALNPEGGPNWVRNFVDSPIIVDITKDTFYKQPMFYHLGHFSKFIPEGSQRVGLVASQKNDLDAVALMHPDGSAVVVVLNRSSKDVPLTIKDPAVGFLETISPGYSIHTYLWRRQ

The test deals with Lysosomal acid glucosylceramidase (Homo sapiens) (UniProt P04062). The experiment in a line: Glucocerebrosidase.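 Note: the screen sought inhibitors.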 The settings on record: purified enzyme, resorufin glucoside fluorescence (screen aimed at inhibitors), 20 min. The procedure, abridged:
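Compounds titrated against 0.2 nM normal enzyme, 30 uM resorufin beta-D-glucopyranoside substrate, citrate/phosphate buffer with taurocholate and tween-20, pH 5.9. Reaction ran 20 min at room temperature; fluorescence (Ex 548/Em 600) gave AC50.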
Turning to `O=C1c2ccccc2C(=O)N1SC1CCCCC1`, the Potency is inactive: > 76.9 µM. For the compound `O=C(Nc1nccs1)c1cnccn1`, the Potency was inactive: > 76.9 µM. For the compound `COc1cccc(-c2nn3c(-c4cc(C)[nH]n4)nnc3s2)c1`, the Potency is inactive: > 76.9 µM. The result for `CN(C)c1ccc(CNn2cnnc2)cc1` reads inactive: > 76.9 µM; that for `Cc1cc(S(=O)(=O)NCC(C)C)ccc1OCC(=O)NCc1ccccn1`, inactive: > 76.9 µM; that for `Cn1c(SCc2ccc(F)cc2)nnc1-c1ccccn1`, inactive: > 76.9 µM. The same measure for `Cc1ccc(S(=O)(=O)NC(C)(C)CSc2nnc(N)s2)cc1`: inactive: > 76.9 µM; for `Cc1ccccc1C(=O)NC1CCN(CC(=O)Nc2nccs2)CC1`: inactive: > 76.9 µM; for `C=C(C)CSc1nnc2[nH]c(=O)cc(N)n12`: inactive: > 76.9 µM. The result for `O=C(NCc1ccco1)C1CCCCN1S(=O)(=O)c1ccc(F)cc1` (stereo not given) reads inactive: > 76.9 µM; that for `COc1cc(C(c2nnnn2C2CCCC2)N2CCc3ccccc3C2)ccc1O` (stereo not given), “inactive”.

For `COC(=O)c1ccc(NC(=O)c2ccccc2NS(C)(=O)=O)cc1`, the Potency is inactive: > 76.9 µM. The same measure for `COC(=O)Cc1c(C)nc2nc[nH]n2c1=O`: inactive: > 76.9 µM; for `O=c1ccc2ccc(OCc3nnc(-c4ccccc4Br)o3)cc2o1`: inactive: > 76.9 µM; for `Cc1cc(C)nc(SCCC(=O)N2CCOCC2)n1`: inactive: > 76.9 µM. Regarding `Cc1cc(Oc2ccc(-c3ccccc3)cc2)nc(N2CCOCC2)n1`, the Potency is inactive: > 76.9 µM. The same measure for `CCOC(=O)CCSc1nnc(-c2cccnc2)n1-c1ccccc1OC`: inactive: > 76.9 µM; for `Cc1ccsc1C(=O)OCC(=O)c1cc2ccccc2o1`: inactive: > 76.9 µM. `Cc1ccnc(N2CCCC(C(=O)Nc3cc(F)ccc3C)C2)n1` (stereo not given): the Potency is inactive: > 76.9 µM. The result for `CC(=O)Nc1ccc2c(c1)nc(CCN1CCN(C)CC1)n2C` reads inactive: > 76.9 µM; that for `O=C(Nc1ccc(C2CCCCC2)cc1)C1CCCN(c2ncccn2)C1` (stereo not given), inactive: > 76.9 µM; that for `Cc1ccc(C(=O)NC2CCCCCC2)o1`, inactive: > 76.9 µM. The result for `O=C(N1CCCCCC1)N1CCN(C(=O)N2CCOCC2)CC1` reads inactive: > 76.9 µM; that for `COc1ccc(S(=O)(=O)NC(C)C(=O)Nc2ccccc2F)cc1` (stereo not given), inactive: > 76.9 µM. The same measure for `CC(c1nnc(SCC(=O)Nc2sccc2C#N)n1-c1ccc(Cl)cc1)N(C)C` (stereo not given): inactive: > 76.9 µM. `Cc1ccc(-n2c(SCC3CCCCO3)nnc2-c2ccco2)cc1` (stereo not given): the Potency was inactive: > 76.9 µM. The same measure for `c1ccc2c(c1)oc1c(NCCN3CCOCC3)ncnc12`: inactive: > 76.9 µM.

`CC1(C)Cc2c(sc3c2c(=N)n(Cc2ccco2)c(=O)n3Cc2ccc(F)cc2)CO1`: the Potency is inactive: > 76.9 µM. The same measure for `N#CC1=C(SCC(=O)NC2CC2)NC(=O)C(C#N)C12CCCCC2` (stereo not given): inactive: > 76.9 µM; for `Fc1ccccc1Cn1nnc2c(NCc3ccccn3)ncnc21`: inactive: > 76.9 µM. Regarding `CCOC(=O)c1cc2sccc2n1Cc1ccc(C#N)cc1`, the Potency is inactive: > 76.9 µM.

With `COc1cc(C2/C(=C(/O)c3ccc(OCC(C)C)cc3)C(=O)C(=O)N2CCN(C)C)ccc1O` (stereo not given), the Potency was inactive: > 76.9 µM. The same measure for `COc1ccc(S(=O)(=O)n2nc(OC(=O)c3ccco3)cc2N)cc1`: inactive: > 76.9 µM; for `CCOc1cccc(-c2nnc(SCC(=O)Nc3cc(OC)cc(OC)c3)n2N)c1`: inactive: > 76.9 µM; for `CCC(=O)Nc1ccc(NC(=O)c2ccccc2Cl)nc1`: inactive: > 76.9 µM.

On to `CC1(C)CC(=O)c2cnc(NC(=O)c3ccco3)nc2C1`, for which the Potency was inactive: > 76.9 µM. `Cc1ccc(-c2noc(CCC(=O)NCCN3CCc4ccccc4C3)n2)cc1`: the Potency was active: 15 µM. The result for `COc1ccc(-c2c3c(=O)n(C)c(=O)n(C)c3cn2-c2cc(OC)ccc2OC)cc1` reads inactive: > 76.9 µM; that for `O=C(CN1C(=O)c2ccccc2C1=O)N1CCCCC1`, inactive: > 76.9 µM.

For `CC1Cn2c(nc3sc4c(c3c2=O)CCC4)N1CCO` (stereo not given), the Potency was inactive: > 76.9 µM. The result for `COC(=O)c1cc(-c2c[nH]c3ccccc23)n[nH]1` reads inactive: > 76.9 µM; that for `COC(=O)c1cc(-c2ccc(OC)c(OC)c2)on1`, inactive: > 76.9 µM. With `O=C(CSc1nnc(-c2ccco2)n1-c1ccccc1)N1CCc2ccccc21`, the Potency is inactive: > 76.9 µM.

Take `O=C(CN1CCOCC1)Nc1ccc(Br)cn1`: the Potency is inactive: > 76.9 µM. The result for `CCOC(=O)N1CCN(S(=O)(=O)c2cc(Br)cc3c2N(C(=O)C2CC2)CC3)CC1` reads inactive: > 76.9 µM; that for `CCCc1cc(-c2ccc(O)c(OCC)c2)c(C#N)c(N)n1`, inactive: > 76.9 µM; that for `CCc1c(O)nc(SCC(=O)Nc2ccccc2C)[nH]c1=O`, inactive: > 76.9 µM.

Turning to `Cc1c(N=Cc2ccncc2)c(=O)n(-c2ccccc2)n1C`, the Potency was inactive: > 76.9 µM. The same measure for `CCOc1ccc(-c2nnn(CC(=O)NCc3ccc(OC)cc3)n2)cc1OCC`: inactive: > 76.9 µM; for `O=C(NCc1ccccc1)N(Cc1cc2cc3c(cc2[nH]c1=O)OCCO3)CC1CCCO1` (stereo not given): inactive: > 76.9 µM. The result for `CCOc1ccc2[nH]c(=O)c(C(c3nnnn3C3CCCCC3)N3CCN(CC)CC3)cc2c1` (stereo not given) reads inactive: > 76.9 µM; that for `COc1ccc(C(=O)COC(=O)c2ccco2)cc1`, inactive: > 76.9 µM; that for `COc1ccc(OC)c(S(=O)(=O)N2c3ccccc3CC2C)c1` (stereo not given), inactive: > 76.9 µM. The same measure for `CCCCc1nc2ccccc2c(=O)n1NC(=O)c1c(O)c2cccc3c2n(c1=O)CCC3`: inactive: > 76.9 µM; for `C=CCNC(=O)c1nn2cccnc2c1Cl`: inactive: > 76.9 µM. For the compound `O=C1C2C3C=CC(C3)C2C(=O)N1c1n[nH]c(-c2cccnc2)n1` (stereo not given), the Potency is inactive: > 76.9 µM. The result for `CCCC1C(c2ccco2)NC(c2ccco2)CC1(C)O` (stereo not given) reads inactive: > 76.9 µM; that for `Nc1c(C(=O)NC2CC2)c2nc3ccccc3nc2n1-c1ccc2c(c1)OCO2`, inactive: > 76.9 µM. The result for `O=C(O)CCS(=O)(=O)Cc1cccc(Cl)c1` reads inactive: > 76.9 µM. The result for `Cc1onc(-c2ccccc2)c1C(=O)Nc1cccnc1` reads inactive: > 76.9 µM.
